Results: the RNAGym collection of RNA variant scans (doi:10.7554/elife.90254)
The source gives no read counts; variants with many changes may rest on few reads.

B1: LINE1-full (parent)
chain: UACGUAGGUGGUUUUCCCCUGAUAGUGCUAAGGGGGCCUGGAAGUUUGGACUGGGCAGAGCUCAACACAGCGUGGCAAAGUGGCUGUGGCUAGACUGCCUCUCUGGAUUCCUCGUCACUCAGCAGGGCAUCUCUGAGAGAAAUGCC

Variants of: B1
Assay: self-cleavage, relative activity (ratio to wild type); higher = more cleavage; in vitro, sequencing; the parent is a self-cleaving ribozyme

Row | Variant | self-cleavage
1 | UACGUAGGUGGUUCUCCCCUGAUAGUGCUAAGGGGGCCUGGAAGUUUGGACUGGGCAGAGCUCAACGCAGCGUGGCAAAGUGGCUGUGGCUAGACUGCCUCUCUGGAUACCUCGUCACUCAGCAGGGCAUCUCUGAGAGAAAUGCC [U14C A67G U109A] | 0.84
2 | UGCGUAGGUGGUUUUCCCCUGAUAGUGCUAAGGGGGCCUGGAAGUUUGGACUGGGCAGAGCUCAACACAGCGUGGCAAAGUGGCUGUGGCUAGACAGCCUCUCUGGAUUCCUCGUCACUCAGCAGGGCACCUCAGAGAGAAAUGCC [A2G U96A U130C U134A] | 0.27
3 | UACGUAGGUGGUUUUCCCCUGGUAGUGCUAAGGGGGCCUGGAAGUUUGGACUGGGCAGAGCUCAACACAGCGUGGCAAAGCGGCUGUGGCUAGACUGCCUCUCUGGAUUCCCCGUCACUCAGCAGGACAUCUCUGAGAGGAAUGCC [A22G U81C U112C G127A A140G] | 0.88
4 | UACGUAGGUGGUUCUCCCCUGAUAGUGCUAAUGGGGCCUGGAAGUUUGGACUGGGCAGAGCUCAACACAGCGUGGCAGAGUGGCUGUGGCUAGACUGCCUCUCUGGAUUCCUCGUCACUCAGCAGGGCAUCUCUGAGAGAAAUGCC [U14C G32U A78G] | 0.88
5 | UACGUAGGUGGUAUUCCCCUGAUAGUGCUAAGGGGGCCUGGAAGUUUGGACUGGGCAGAGCUCAACACAGCGUGGCAAAGUGGCUGUGGCUAGACUGCCUCUCUGGAUUCCUCGUCCCUCAGCGGGGCAUCUCUGAGAGAAAUGCC [U13A A117C A124G] | 0.97
6 | UACGUAGGUGGCUUUCCCCUGAUAGUGCUAAGGGGGCCCGGAGGUUUGGACUGGGCAGAACUCAACACAGCGUGGCAAAGUGGCUGUGGCUAGACUGCCUCUCUGGAUUCCUCGUCACUCAGCAGGGCAUCUCUGAGAGAAAUGCC [U12C U39C A43G G60A] | 0.09
7 | UACGUAGGUGGUUUUCCCCUGAUAGUGCUAAGGGGGCCUGGAAGUUUGGACUAGGUAGAGCCCAACACAGCGUGGCAUAGUGGCUGUGGCUAGACUGCCUCUCUGGAUUCCUCGUCACUCAGCAGGGCAUCUCUGAGAGAAAUGCC [G53A C56U U62C A78U] | 0.02
8 | UACCUAGGUGGUCUUCCCCUGAUAGUGCCAAGGGGGCCUGGGAGUUUGGACUGGGCAGAGCUCAACACAGCGUGGCAAAGUGGCUGUGGCUAGACUGCCUCUCUGGAUUCCUCGUCACUCAGCAGGGCAUCUCUGAGAGAAAUGCC [G4C U13C U29C A42G] | 0.37
9 | UACGAAGGUGGUUUUCCCCUGAUAGUGCCAAGGGGGCCUGGAGGUUUGGACUGGGCAGAGCUCAACACAGCGUGGCAAAGUGGCUGUGGCUAGACUGCCUCUCUGGAUUCCUCGUCACUCAGCAGGGCAUCUCUGAGAGAAAUGCC [U5A U29C A43G] | 0.85
10 | UACGUAGGUGGUUUUCCCCUGAUAGUGCUAAGGGGGCCUGGAAGUCUGGACCGGGCAGAGCUCAACACAGCGUGGCAAAGUGGCUGUGGCUAGACUGCCUCUCUGGGUUCCUCGUCACUCAGCAGGGCAUCUCUGAGAGAAAUGCC [U46C U52C A107G] | 0.56
11 | UGCGUAGGUGGAUUUCCCCUGAUAGUGCUAAGGGGGCCUGGAAGUUUGGACUGGGCAGAGCUCAACGCAGCGUGGCAAAGUGGCUGUGGCUAGACUGCCUCUCUGGAUUCCUCGUCACUCAGCAGGGCAUCUCUGAGAGAAAUGCC [A2G U12A A67G] | 0.57
12 | UACGUAGGUGGUUUUCCCCUGAUAGUGCUAAGGGGGCCUGGAAGUUUGGACUGGGCGGAGCUCAACACAGCGUGGCAAAGUGGCUGUGGCUAGACUGCCUCUCUGGAUUCCUCGUCACUCAGCAGGGCAUCUCUGGGAGAAGUGCC [A57G A136G A142G] | 1.46
13 | UACGUAGGUGGUUUUCCCUUGAUAGUGCUAAGGGGGCCUGGAAGUUUGGACUGGGCAGAGCUCAACACAGCGCGGCAAAGUGGCUGUGGCUAGACUGCCUCUCUGGAUUCCUCGUCACUCAGCAGGGCAUCCCUGAGAGAAAUGCC [C19U U73C U132C] | 2.18
14 | UACGUAGGUGGUUUUCCCCUGAUAGUGCUAAGGGGGCCUGGAAGUUUGGACUGGGCAGAGCUCAACACGGCGUGGCAAAGUGGCUGUGGCUAGACUGCCUCUCUGGAUUCCUCGUCACUCAGCAGGGCACCUCUGAGAGAGAUGCC [A69G U130C A141G] | 2.63
15 | UACGUAGGUGGUUUUCCCCUGAUAGUGCUAAGGGGGCCUGGGAGUUUGGACUGGGCAGAGCUCAACACAGCGUGGCAAAGUGGCUGUGGCUAGACUGCCUCUCUGGAUUCCUCGUCACUCAGCAGGGCGGCUCUGAGAGAAAUGCC [A42G A129G U130G] | 1.69
16 | UACGUAGGUGGUUUUCCCCUGAUAGUGCUAAGGGGGCCUGGAAGCUUGGACUGGGCAGAGCUCAACACAGCGUGGCAAAGUGGCUGUGGCUAGACUGCCUCUCUGGGUUCCUCGUCACUCAGCAGGGCAUCUCUGAGAGGAAUGCC [U45C A107G A140G] | 0.53
17 | UACGUAGGUGGUCUUCCCCUGAUAGUGCUAAGGGGGCCUGGGAGUUUGGACUGGGCAGAGCUCAACACAGCGUGGCAGAGUGGCUGUGGCUAGACUGCCUCUCUGGAUUACUCGUCACUCAGCAGGGCAUCUCUGAGAGAAAUGCC [U13C A42G A78G C110A] | 1.55
18 | UACGUAGGUGGUUUUCCCCCGAUAGUGCUAAGGGGGCCAGGAAGUUUGGACUGGGCAGAGCUCAACACAGCGUGGCAAGGUGGCUGUGGCUAGACUGCCUCUCUGGAUUCCUCGUCUCUCAGCAGGGCAUCUCUGAGAGAAAUGCC [U20C U39A A79G A117U] | 1.38
19 | UGCGUAGGUGGUUUUCCCCUGAUAGUGCUAAGGGGGCCUGGAAGUUUGGACUGGGCAGAGCUCAUCACAGCGUGGCAAAGUGGCUGUGGCUAGACUGCCUCUCUGGAUUCCUCGUCACUCAGCGGGGCAUCUCUGAGAGAAAUGCC [A2G A65U A124G] | 0.11
20 | UACGUAGGCGGUUUUCCCCUGAUAGUGCUAAGGGGGCCUGGAAGUUUGGACUGGGCAGAGCUCAACACAGCGUGGCAAAGUGGCUGUGGCUAGACUGCCUCCCUGGAUUCCUCGUCACUCUGCAGGGCAUCUCUGAGAGAUAUGCC [U9C U102C A121U A141U] | 1.98

Row | Variant | self-cleavage
21 | UACGUAGGUGGUUUUCCCCUGGUAGUGCUAAGGGGGCCUGGAAGUUUGGACUGGGCAGAGCUCAACACAGGGUGGCAAAGUGGCUGUGGCUAGACUGCCUCUCUGGAUUCCUCGUCACUCAGCUGGGCAUCUCUGAGAGAAAUGCC [A22G C71G A124U] | 0.36
22 | UACGUAGGUGGUUUCCCCCUGAUAGUGCUAAGGGGGCCUGGAAGUUUGGACUGGGCGGAGCUCAACACAGCGUGGCAAAGAGGCUGUGGCUAGACUGCCUCUCUGGAUUCCUCGUCACUCAGCAGGGCAUCUCUGAGAGAAAUGCC [U15C A57G U81A] | 0.56
23 | UACGCAGGUGGUUUUCCCCUGGUAGUGCUAAGGGGGCCUGGAAGUUUGGACUGGGCAGAGCACAACACAGCGUGGCAAAGUGGCUGUGGCUAGACUGCCUCUCUGGAUUCCUCGUCACUCAGCAGGGCAUCUCUGAGGGAAAUGCC [U5C A22G U62A A138G] | 0
24 | UACGUAGGUGGUUUUCCCCUGAUAGUGCUAGGGGGGCCUGGAAGUUUGGGCUGGGCAGAGCUCAACACAGCGUGGCAAAGUGGCUGUGGCUAGACUGCUUCUCUGGACUCCUCGUCACUCAGCAGGGCAUCUCUGGGAGAAAUGCC [A31G A50G C99U U108C A136G] | 0.38
25 | UACGUAGGUGGUUUUCCCCUGAUAGUGCUAAGGGUGCCUGGAAGUUUGGACUGGGCAGAGCUCAACACAGCGUGGCAAAGUGGCUGUGGCUGGACUGCCACUCUGGAUUCCUCGUCACUCAGCAGGGCACCUCUGAGAGGAAUACC [G35U A92G U100A U130C A140G G144A] | 1.15
26 | UACGUAGGUGGUUUUCCCCUGAUAGUGCUAAGGGGGCCUGGAAGCUUGGACUGGGCAGAGCUCAACACAGCGUGGCAAAGUGGCUGUGGCUAGACUGCCUCUCUGGAUUCCUCGCCACUCAGCAGGGCAUCUCUGAGAGAAGUGCC [U45C U115C A142G] | 2.49
27 | UACGUAGGUGGUUUUCCCCUGGUAGUGCUAAGGGGGCCUGGAAGUUUGGGCUGGGCAGAGCUCCACGAAGCGUGGCAAAGUGGCUGUGGCUAGACUGCCUCUCUGGAUUCCUCGUCACUCAGCAGGGCAUCUCUGAGAGAGAUGCC [A22G A50G A64C A67G C68A A141G] | 0
28 | UACGUGGGUGGUUUUCCCCUGAUAGUGCUAAGGGGGCCUGGAUGUUUGGACUGGGCAGAGCUCAACACAGCGUGGCAAAGUGGCUGUGGCAAGACUGCCUCUCUGGAUUCCUCGUCACUCAGCAGGGCAUCUCUGAGAGAAAUGCC [A6G A43U U91A] | 0.56
29 | UACGUAGGUGGUUUUCCCCUGGUAGUGCUAAGGGGGCCUGGAAGUUUGGACUGGGCAGAGCUCAACACAGCGUGGCAAAGUGGCUGUGGCUAGACUGCCUCUCUGGAUUCCUCGUCACUCAGCAAGGCAUCUCUGAGAGGAAUGCC [A22G G125A A140G] | 1.15
30 | UACGUAGGUGGUUUUCCCCUGAUAGUGGUAAGGGGGCCUGGAAGUUUGGACUGGGCAGAGCUCAGCACAGCGUGGCAAAGUGGCUGUGGCUAGACUGCCUCUCUGGACUCCUCGUCACUCAGCAGGGCACCUCUGAGAGAAAUGCC [C28G A65G U108C U130C] | 0
31 | UACGUAGGUGGUUUUCCCCUGAUAGUGCUAAGGGGGCCAGGAAGUUUGGACUGGGCAGAGCUCAACACAGCGUGGCAAAGUGGCUGUGGCUAGACUGCCUCUCUGGAUUCCCUAUAACUCAGCAGGGCAUCUCUGAGAGAAAUGCC [U39A U112C C113U G114A C116A] | 1.72
32 | UACGUAGGUGGUUUUCCCCUGAUAGUGCUAAGGGGGCCUGGUAGUCUGGACUGGGCAGAGCUCAACACAGCGUGGCAAAGUGGCUGUGGCUAGACUGCCGCUCUGGAUUCCUCGUCACUCAGCAGGGCAUCUCUGAGAGAAAUGCC [A42U U46C U100G] | 0.84
33 | UACGUAGGUGGUUUUCCCCUGAUAGUGCUAAGGGGGCCUGGAAGUUUGGACUGGGCAGAGCUCAACACGGCGUGGCAAAGUGGCUGUGGCUAGGCUGCCUCUCUGGAUUCCUCGUCACUCAGCGGGGCAUCUCUGAGGGAAAUGCC [A69G A94G A124G A138G] | 0
34 | UACGUAGGUGGUUUUCCCCUGAUAGUGCUAGGGGUGCCUGGAAGUUUGGACUGGGCAGAGCUCAACACAGCGUGGCAAAGUGGCUGUGGCUAGACUGCCUCUCUGGAUUCCCCGUCACUCAGCAGGGCAUCUCUGAGAGAAAUGCC [A31G G35U U112C] | 0.86
35 | UACGUAGGUGGUUUUCCCCUGAUAGUGCUAAGGGGGCCUGGAAGUUUGGACUGGGCAGAGCUCAACACAGCGUGGCGAAGUGGCUGUGGCUAGACAGCCUCUCAGGAUUCCUCGUCACUCAGCAGGGCAUCUCUGAGAGAAAUGCC [A77G U96A U104A] | 0.12
36 | UACGUAGGAGGUUUUCCCCUGAUAGUGCUAAGGGGGCCUGGAAGUUAGGACUGGGCAGAGCUCAACACAGCGUGGCAAAGUGGCUGUGGCUAGACUGCCCCUCUGGAUUCCUCGUCACUCAGCAGGGCAUCUCUGAGAGAGAUGCC [U9A U47A U100C A141G] | 1.4
37 | CACGUAGGUGGUUUUCCCCUGAUAGUGCUAAGGGGGCCUGGAAGUUUGGACUGGGCAGAGCUCAACACAGCGUGGCUAAGUGGCUGUGACUAGACUGCCCCUCUGGAUUCCUCGUCACUCAGCGGGGCAUCUCUGAGAGAAAUGCC [U1C A77U G89A U100C A124G] | 0.04
38 | UACGUAGGCGGUUUUCCCCUGAUAGUGCUAAGGGGGCCUGGAAGUUUGGACUGGGCAGAGCCCAACACAGCGUGGCAUAGUGGCUGUGGCUAGACUGCCUCUCUGGAUUCCUCGUCACUCAGCAGGGCAUAUCUGAGAGAAAUGCC [U9C U62C A78U C131A] | 0.06
39 | UACGUAGGUGGUUUUCCCCUGAUAGUGCUAAGGGGGCCUGGAAGUUUGGACUGGGCAGAGCUCAACACAGCGAGGCAAAGUGGCUGUGGCUAGACUGCCUCUCUGGAUUCCUCGUCACUCAGCAGGGCAUCUCUGGGAGAAACGCC [U73A A136G U143C] | 1.79
